# PubChem BioAssay AID1030 (National Center for Advancing Translational Sciences (NCATS), 2008)
# The campaign covered roughly 220,000 compounds. About 16,000 (7.3%) were called active. The inconclusive results got no clear call from the source; some entries with a clear call stand among them for comparison. Calls follow the shape of the dose curve; as a rule, active = well fitted inhibition curve with a large enough effect (not every such curve was filed as active); inconclusive = small, poorly fitted or top-dose-only effect, or another doubt; inactive = no such curve, though single readings can be large or run the other way. No potency is given beside an inconclusive call; the fits are too rough.
# Target: Aldehyde dehydrogenase 1A1 (Homo sapiens) (UniProt P00352)
# Chain of UniProt P00352 (P00352 whole entry, looked up): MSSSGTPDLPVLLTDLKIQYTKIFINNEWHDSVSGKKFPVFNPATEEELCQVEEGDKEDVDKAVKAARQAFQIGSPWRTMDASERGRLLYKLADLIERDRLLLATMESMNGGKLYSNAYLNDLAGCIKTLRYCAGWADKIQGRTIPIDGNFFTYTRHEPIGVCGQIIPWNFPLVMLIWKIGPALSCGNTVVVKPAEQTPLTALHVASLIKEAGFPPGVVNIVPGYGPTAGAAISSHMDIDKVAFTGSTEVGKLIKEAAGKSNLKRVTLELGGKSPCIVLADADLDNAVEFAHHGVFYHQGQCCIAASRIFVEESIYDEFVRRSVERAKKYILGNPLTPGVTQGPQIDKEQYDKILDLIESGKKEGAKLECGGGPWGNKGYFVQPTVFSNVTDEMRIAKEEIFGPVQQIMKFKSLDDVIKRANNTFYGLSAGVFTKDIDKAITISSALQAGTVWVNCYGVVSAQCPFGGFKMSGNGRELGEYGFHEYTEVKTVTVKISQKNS
# Assay: qHTS Assay for Inhibitors of Aldehyde Dehydrogenase 1 (ALDH1A1);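 as to activity, negative = inhibition: plate controls were no enzyme wells and a reference inhibitor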
# Conditions: Purified ALDH1A1, NADH fluorescence, propionaldehyde substrate; series mostly up to 75.3 µM
# Potency is read from the fitted curve at half-maximal effect; tags tell the direction and shape of the fitted curve.
SMILES,Potency,"activity, negative = inhibition"
O=CN(/C=C1\Sc2ccccc2C1=O)Cc1ccccc1,"inconclusive [inhibitor, single point]",
CCOc1ccc(-c2cc(NC(=O)Cn3ncc4c3-c3ccccc3OC4)on2)cc1OCC,inactive,
COCc1cc(C)n(CC(=O)Nc2ccccc2C(=O)OC)c(=O)c1C#N,"inconclusive [inhibitor, single point]",
Cc1cc(C(=O)Nc2ncc(C)s2)c2ccccc2n1,"inconclusive [inhibitor, single point]",
Cc1[nH]ccc(=O)c1OCc1c(F)cccc1Cl,inactive,
COc1ccc(Nc2nc(N)nc(CN3CCN(c4ccccn4)CC3)n2)cc1,"inconclusive [inhibitor, partial curve]",
COc1ccc(N2CCN(C(CNS(=O)(=O)c3ccc4c(c3)OCCO4)c3ccco3)CC2)cc1 (stereo not drawn),inactive,
COc1ncc2nc(-c3cc(F)cc(F)c3)c(=O)n(CCc3ccccc3)c2n1,"inconclusive [inhibitor, partial curve]",
NNC(=O)c1cccnc1Oc1ccccc1,"inconclusive [inhibitor, single point]",
COc1ccc(CNC(=O)OCCN2CCN(Cc3ccccc3)CCC2=O)cc1,"inconclusive [inhibitor, single point]",
Cc1cccc(-c2nc3ccccc3c(=O)n2NC(=S)N(C)C)c1,active: 8.91 µM,
Cc1cccc(C)c1-n1nnnc1SCSc1nnnn1-c1c(C)cccc1C,"inconclusive [inhibitor, partial curve]",
C/C=C/C1Oc2ccc(OC)cc2N2C(=O)C(C)C(OCOC)C12 (stereo not drawn),,inactive: 9.56% [at 13.5 µM]
CC(=O)c1ccc(N2CCN(C(=O)Nc3cccc(F)c3)CC2)cc1,inactive,
COC(=O)c1ccccc1NC(=O)Nc1nnc(N2CCCCC2C)s1 (stereo not drawn),"inconclusive [inhibitor, partial curve]",
COc1ccc(S(=O)(=O)NC(CC(=O)NCc2ccco2)c2ccco2)cc1 (stereo not drawn),"inconclusive [inhibitor, single point]",
COc1ccc(CC(=O)Nc2cccc(-c3nnc(-c4ccccc4)o3)c2)cc1OC,"inconclusive [inhibitor, partial curve]",
CN(C)Cc1ccccc1-c1nccc(NCc2cccs2)n1,inactive,
Cc1cccc(-c2nsc(SCC(=O)NCC3CCCO3)n2)c1 (stereo not drawn),active: 20 µM,
CC(=O)c1cn(CC(=O)Nc2ccccc2)c2ccccc12,"inconclusive [inhibitor, single point]",
Cc1cc(C(=O)OCC(=O)c2ccc(Br)s2)c(C)o1,"inconclusive [inhibitor, single point]",
O=C(COc1ccccc1)N(Cc1cc2ccccc2[nH]c1=O)CC1CCCO1 (stereo not drawn),"inconclusive [inhibitor, partial curve]",
Cc1csc(-c2coc3cc(O)cc(C)c3c2=O)n1,"inconclusive [inhibitor, single point]",
O=C(C[n+]1cc(-c2ccc(F)cc2)n2c1CCC2)Nc1nc(-c2ccc(F)cc2)cs1,inactive,
COc1ccc(CSc2nc3ccccc3[nH]2)cc1,inactive,

SMILES,Potency,"activity, negative = inhibition"
COC1=C(Nc2ccc(C)cc2)C(=O)c2ccccc2C1=O,active: 5.01 µM,
c1cnc2c(-c3nccc4c3[nH]c3ccccc34)cccc2c1,inactive,
COc1ccc(/C=C/C(=O)NC(=S)Nc2ccc(S(=O)(=O)Nc3cc(OC)ncn3)cc2)cc1,active: 28.2 µM,
Cc1ccc2nc(NC(=O)c3cccs3)sc2c1,"inconclusive [inhibitor, single point]",
CCc1ccc(NC(=S)Nc2ccc3cn[nH]c3c2)cc1,"inconclusive [inhibitor, single point]",
COC(=O)N1CCC2(CC1)CN(c1ccc(-c3ccccc3)cc1)C2,"inconclusive [inhibitor, single point]",
O=C(NC(=S)Nc1ccccc1)c1cc(-c2ccccc2)nc2ccccc12,active: 1.26 µM,
CCN(CC)C(=O)CSc1nc2ncccc2[nH]1,"inconclusive [inhibitor, single point]",
COc1ccc(/C=N/Nc2ccccc2)cc1Cn1nc(C)c([N+](=O)[O-])c1C,inactive,
CN(Cc1ccco1)c1nc(-c2ccoc2)nc2ccccc12,"inconclusive [inhibitor, single point]",
COc1cc(-c2nn3c(-c4ccccc4)nnc3s2)cc(OC)c1OC,"inconclusive [inhibitor, partial curve]",
COc1ccc(-n2nc(C(N)=O)c(O)cc2=O)cc1,inactive,
CCOC(=O)C1(Cc2ccc(OC)cc2)CCN(C(=O)c2sc(C)nc2C)CC1,"inconclusive [inhibitor, single point]",
COc1ccc(NC(=S)NC(=O)c2ccccc2Cl)cc1,active: 12.6 µM,
O=C1C(C=NCc2ccccn2)=C(O)c2ccccc21,"inconclusive [inhibitor, single point]",
O=C1CC(N2CCN(c3ccc(O)cc3)CC2)C(=O)N1c1ccc2c(c1)OCO2 (stereo not drawn),"inconclusive [inhibitor, single point]",
CO[C@@H]1COC(=O)[C@H]2CCCN2C(=O)C/C=C\[C@@H](C)[C@H](OC)COC(=O)[C@H]2CCCN2C(=O)C/C=C\[C@H]1C,,inactive: -1.89% [at 13.5 µM]
CCOC(=O)C1CCN(Cc2cccc(OC)c2)CC1,active: 31.6 µM,
Cc1cccc(C)c1N1CCN(c2ccc3nnc(C(F)(F)F)n3n2)CC1,"inconclusive [inhibitor, single point]",
Cc1ccc2nc(N/C(N)=N/S(=O)(=O)c3ccc([N+](=O)[O-])cc3)nc(C)c2c1,inactive,
O=C(Cc1ccc(S(=O)(=O)N2CCCCC2)s1)Nc1ccc(F)cc1F,"inconclusive [inhibitor, partial curve]",
CC1(C)CC(=O)C2=C(C1)Nc1nc(SCCN3CCOCC3)[nH]c(=O)c1C2c1cccs1 (stereo not drawn),"inconclusive [inhibitor, single point]",
Cc1cccc(C(=O)c2c(N)sc3c2CCCC3)c1,"inconclusive [inhibitor, single point]",
O=C(Nc1nnc(SCc2ccc(F)cc2)s1)c1ccccn1,inactive,
COc1cccc(C(=O)Nc2cc(C(=O)NCCc3ccccc3)ccc2Cl)c1,"inconclusive [inhibitor, partial curve]",

SMILES,Potency,"activity, negative = inhibition"
O=C(O)CCN1c2ccccc2Sc2ccccc21,inactive,
COc1ccc(/C=N/NC(=O)CSc2ccccc2)cc1OC,"inconclusive [inhibitor, single point]",
Cc1nn(Cc2ccccc2)c(C)c1C(=O)OCC(=O)c1cc(C)n(C2CC2)c1C,"inconclusive [inhibitor, single point]",
CCOC(=O)C1=C(C)NC(C)=C(C(=O)OCC)C1C(=O)OCC(N)=O,"inconclusive [inhibitor, partial curve]",
COc1ccccc1N1CCN(C2CCN(C3CCC(c4ccccc4)CC3)CC2)CC1 (stereo not drawn),"inconclusive [inhibitor, partial curve]",
O=C(CN1C(=O)NC2(CCCCCC2)C1=O)NCc1cccs1,inactive,
COc1ccccc1C(=O)OCCN1CCOCC1,inactive,
COc1cc(/C=N/NC(N)=S)cc(Br)c1OCc1ccccc1F,"inconclusive [inhibitor, full curve]",
N#Cc1c2c(c(NCc3cccnc3)n3c1nc1ccccc13)CCC2,"inconclusive [inhibitor, partial curve]",
CC(=O)NCC1=C(NC(C)=O)C2CC1C(C)(C)C2C (stereo not drawn),inactive,
CSCCC(NC(=O)c1cccc(C)c1)C(=O)OCC(=O)NC(=O)c1cccn1C (stereo not drawn),inactive,
COc1cc(C=O)ccc1Oc1nc(Nc2ccc(F)cc2F)nc(N2CCOCC2)n1,"inconclusive [inhibitor, single point]",
CC/C(=N/NC(=O)CNc1ccc(Cl)cc1C)c1ccccc1,inactive,
COc1cccc(-c2nc(-c3ccc(NC(=O)Cc4ccccc4OC)cc3)no2)c1,"inconclusive [inhibitor, single point]",
CC(Oc1ccc(Cl)cc1Cl)C(=O)N(Cc1ccco1)C1CCS(=O)(=O)C1 (stereo not drawn),"inconclusive [inhibitor, single point]",
Cc1ccc2nc(-c3ccc(NC(=O)c4ccco4)cc3)[nH]c2c1,"inconclusive [inhibitor, single point]",
Cc1occc1-c1nnc(-c2cc([N+](=O)[O-])cc([N+](=O)[O-])c2)o1,"inconclusive [inhibitor, partial curve]",
C/C(N)=C(/C#N)C(=O)CSc1ccccc1F,"inconclusive [inhibitor, partial curve]",
CC1CC(N(C(=O)c2ccccc2Cl)c2ccccc2)c2ccccc2N1 (stereo not drawn),inactive,
Cc1ccc(S(=O)(=O)c2c(N)n(CCC(C)C)c3nc4ccccc4nc23)cc1,"inconclusive [inhibitor, partial curve]",
COC(=O)c1ccccc1NC(=O)COc1ccccc1,"inconclusive [inhibitor, partial curve]",
COc1cc(/C=N\Nc2ccc([N+](=O)[O-])cn2)ccc1OCC(=O)O,inactive,
COc1ccc(OCc2nc(C#N)c(NCCCn3ccnc3)o2)cc1,inactive,
